# Source: the supplement of paper PMC8728848
# The list shows a part of the results.
# How the values were obtained:
# Test in all cases: glycan array binding signal (z-score within array); higher = stronger binding
# Details in all cases: glycan notation: IUPAC condensed, linker removed
# [1] = biological target: Glc(a1-6)Glc(a1-6)Glc(a1-6)Glc
# Procedure, shortened: (§1)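 The Consortium for Functional Glycomics database supplied 3228 glycan arrays, of which those lacking an available protein sequence were dropped. The binding signal, a within-array Z-score, was averaged across arrays of the same protein sequence and across linkers. Negative scores can be read as non-binding.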
# [2] = biological target: Glc(a1-6)Glc(a1-6)Glc(a1-6)Glc(a1-6)Glc
# Procedure, shortened: as §1
# [3] = biological target: Glc(a1-6)Glc(a1-6)Glc(a1-6)Glc(a1-6)Glc(a1-6)Glc
# Procedure, shortened: as §1
# [4] = biological target: Glc(a1-6)Glc(a1-6)Glc(a1-6)Glc(a1-6)Glc(a1-6)Glc(a1-6)Glc
# Procedure, shortened: as §1
# [5] = biological target: Glc(a1-6)Glc(a1-6)Glc(a1-6)Glc(a1-6)Glc(a1-6)Glc(a1-6)Glc(a1-6)Glc
# Procedure, shortened: as §1
# [6] = biological target: Glc(b1-3)Glc(b1-3)Glc(b1-3)Glc(b1-3)Glc
# Procedure, shortened: as §1
# [7] = biological target: Glc(b1-3)Glc(b1-3)Glc(b1-3)Glc(b1-3)Glc(b1-3)Glc
# Procedure, shortened: as §1
# [8] = biological target: Glc(b1-3)Glc(b1-3)Glc(b1-3)Glc(b1-3)Glc(b1-3)Glc(b1-3)Glc(b1-3)Glc
# Procedure, shortened: as §1
# [9] = biological target: Glc(b1-3)Glc(b1-3)Glc(b1-3)Glc(b1-3)Glc(b1-3)Glc(b1-3)Glc(b1-3)Glc(b1-3)Glc(b1-3)Glc(b1-3)Glc
# Procedure, shortened: as §1
# [10] = biological target: Glc(b1-3)Glc(b1-3)Glc(b1-3)Glc(b1-3)Glc(b1-3)Glc(b1-3)Glc(b1-3)Glc(b1-3)Glc(b1-3)Glc(b1-3)Glc(b1-3)Glc(b1-3)Glc
# Procedure, shortened: as §1
# [11] = biological target: Glc(b1-4)Glc(b1-4)Glc(b1-4)Glc(b1-4)Glc
# Procedure, shortened: as §1
# [12] = biological target: Glc(b1-6)Glc(b1-6)Glc(b1-6)Glc(b1-6)Glc(b1-6)Glc(b1-6)Glc
# Procedure, shortened: as §1
# [13] = biological target: Glc(b1-6)Glc(b1-6)Glc(b1-6)Glc(b1-6)Glc(b1-6)Glc(b1-6)Glc(b1-6)Glc(b1-6)Glc(b1-6)Glc
# Procedure, shortened: as §1
# [14] = biological target: Glc(b1-6)Glc(b1-6)Glc(b1-6)Glc(b1-6)Glc(b1-6)Glc(b1-6)Glc(b1-6)Glc(b1-6)Glc(b1-6)Glc(b1-6)Glc
# Procedure, shortened: as §1
# [15] = biological target: Glc(b1-6)Glc(b1-6)Glc(b1-6)Glc(b1-6)Glc(b1-6)Glc(b1-6)Glc(b1-6)Glc(b1-6)Glc(b1-6)Glc(b1-6)Glc(b1-6)Glc(b1-6)Glc
# Procedure, shortened: as §1
# [16] = biological target: GlcA(b1-3)Gal
# Procedure, shortened: as §1
# [17] = biological target: GlcA(b1-3)Gal(b1-3)GlcNAc
# Procedure, shortened: as §1
# [18] = biological target: GlcA(b1-3)Gal(b1-4)GlcNAc(b1-3)Gal(b1-4)Glc
# Procedure, shortened: as §1
# [19] = biological target: GlcA(b1-3)Gal(b1-4)GlcNAc(b1-3)Gal(b1-4)GlcNAc(b1-3)Gal(b1-4)Glc
# Procedure, shortened: as §1
# [20] = biological target: GlcA(b1-3)GlcNAc(b1-4)GlcA(b1-3)GlcNAc
# Procedure, shortened: as §1
# [21] = biological target: GlcA(b1-3)GlcNAc(b1-4)GlcA(b1-3)GlcNAc(b1-4)GlcA(b1-3)GlcNAc(b1-4)GlcA(b1-3)GlcNAc(b1-4)GlcA(b1-3)GlcNAc(b1-4)GlcA(b1-3)GlcNAc(b1-4)GlcA(b1-3)GlcNAc
# Procedure, shortened: as §1
# [22] = biological target: GlcA3S(b1-3)Gal
# Procedure, shortened: as §1
# [23] = biological target: GlcA3S(b1-3)Gal(b1-4)GlcNAc(b1-3)Gal(b1-4)Glc
# Procedure, shortened: as §1
# [24] = biological target: GlcA3S(b1-3)Gal(b1-4)GlcNAc(b1-3)Gal(b1-4)GlcNAc(b1-3)Gal(b1-4)Glc
# Procedure, shortened: as §1
# [25] = biological target: GlcNAc(a1-4)Gal
# Procedure, shortened: as §1
# [26] = biological target: GlcNAc(a1-4)Gal(b1-3)[Fuc(a1-2)]Gal
# Procedure, shortened: as §1
# [27] = biological target: GlcNAc(b1-2)Man(a1-3)[GlcNAc(b1-2)Man(a1-6)]Man(b1-4)GlcNAc(b1-4)GlcNAc
# Procedure, shortened: as §1
# [28] = biological target: GlcNAc(b1-2)Man(a1-3)[GlcNAc(b1-2)Man(a1-6)]Man(b1-4)GlcNAc(b1-4)[Fuc(a1-6)]GlcNAc
# Procedure, shortened: as §1
# [29] = biological target: GlcNAc(b1-2)Man(a1-3)[GlcNAc(b1-2)Man(a1-6)][GlcNAc(b1-4)]Man(b1-4)GlcNAc(b1-4)GlcNAc
# Procedure, shortened: as §1
# [30] = biological target: GlcNAc(b1-2)Man(a1-3)[Man(a1-3)[Man(a1-6)]Man(a1-6)][GlcNAc(b1-4)]Man(b1-4)GlcNAc(b1-4)GlcNAc
# Procedure, shortened: as §1
# [31] = biological target: GlcNAc(b1-2)[GlcNAc(b1-4)]Man(a1-3)[GlcNAc(b1-2)Man(a1-6)][GlcNAc(b1-4)]Man(b1-4)GlcNAc(b1-4)GlcNAc
# Procedure, shortened: as §1
# [32] = biological target: GlcNAc(b1-2)[GlcNAc(b1-4)]Man(a1-3)[GlcNAc(b1-2)[GlcNAc(b1-4)][GlcNAc(b1-6)]Man(a1-6)][GlcNAc(b1-4)]Man(b1-4)GlcNAc(b1-4)GlcNAc
# Procedure, shortened: as §1
# [33] = biological target: GlcNAc(b1-2)[GlcNAc(b1-4)]Man(a1-3)[GlcNAc(b1-2)[GlcNAc(b1-6)]Man(a1-6)]Man(b1-4)GlcNAc(b1-4)GlcNAc
# Procedure, shortened: as §1
# [34] = biological target: GlcNAc(b1-3)Fuc
# Procedure, shortened: as §1
# [35] = biological target: GlcNAc(b1-3)Gal(b1-4)Glc
# Procedure, shortened: as §1
# [36] = biological target: GlcNAc(b1-3)[GlcNAc(b1-6)]Gal(b1-4)GlcNAc(b1-3)[GlcNAc(b1-6)]Gal(b1-4)GlcNAc(b1-3)Gal(b1-4)Glc
# Procedure, shortened: as §1
# [37] = biological target: GlcNAc(b1-4)GlcNAc
# Procedure, shortened: as §1
# [38] = biological target: GlcNAc(b1-4)GlcNAc(b1-4)GlcNAc
# Procedure, shortened: as §1
# [39] = biological target: HexA(a1-3)GalNAc4S(b1-4)GlcA(b1-3)GalNAc4S
# Procedure, shortened: as §1
# [40] = biological target: HexA(a1-3)GalNAc4S(b1-4)GlcA(b1-3)GalNAc4S(b1-4)GlcA(b1-3)GalNAc4S(b1-4)GlcA(b1-3)GalNAc4S(b1-4)GlcA(b1-3)GalNAc4S(b1-4)GlcA(b1-3)GalNAc4S(b1-4)GlcA(b1-3)GalNAc4S
# Procedure, shortened: as §1
# [41] = biological target: HexA(a1-3)GalNAc4S(b1-4)IdoA(a1-3)GalNAc4S
# Procedure, shortened: as §1
# [42] = biological target: HexA(a1-3)GalNAc4S(b1-4)IdoA(a1-3)GalNAc4S(b1-4)IdoA(a1-3)GalNAc4S(b1-4)IdoA(a1-3)GalNAc4S(b1-4)IdoA(a1-3)GalNAc4S(b1-4)IdoA(a1-3)GalNAc4S(b1-4)IdoA(a1-3)GalNAc4S
# Procedure, shortened: as §1
# [43] = biological target: HexA(a1-3)GalNAc6S(b1-4)GlcA(b1-3)GalNAc6S
# Procedure, shortened: as §1
# [44] = biological target: HexA(a1-3)GalNAc6S(b1-4)GlcA(b1-3)GalNAc6S(b1-4)GlcA(b1-3)GalNAc6S(b1-4)GlcA(b1-3)GalNAc6S(b1-4)GlcA(b1-3)GalNAc6S(b1-4)GlcA(b1-3)GalNAc6S(b1-4)GlcA(b1-3)GalNAc6S
# Procedure, shortened: as §1
# [45] = biological target: HexA(a1-4)GlcNAc(a1-4)HexA(a1-4)GlcNAc(a1-4)HexA(a1-4)GlcNAc(a1-4)HexA(a1-4)Man
# Procedure, shortened: as §1
binder,measurement,setting,value
"CLECSF8 (Mus musculus), Q9Z2H6 (protein) HYFLRWTRGSVVKLSDYHTRVTCIREEPQPGATGGTWTCCPVSWRAFQSNCYFPLNDNQTWHESERNCSGMSSHLVTINTEAEQNFVTQLLDKRFSYFLGLADENVEGQWQWVDKTPFNPHTVFWEKGESNDFMEEDCVVLVHVHEKWVWNDFPCHFEVRRICKLPGITFNWKPSK",glycan array binding signal (z-score),[1],0.775
same,glycan array binding signal (z-score),[2],0.858
same,glycan array binding signal (z-score),[3],1.13
same,glycan array binding signal (z-score),[4],0.034
same,glycan array binding signal (z-score),[5],1.5
same,glycan array binding signal (z-score),[6],0.404
same,glycan array binding signal (z-score),[7],0.858
same,glycan array binding signal (z-score),[8],-0.424
same,glycan array binding signal (z-score),[9],-0.424
same,glycan array binding signal (z-score),[10],-0.424
same,glycan array binding signal (z-score),[11],1.01
same,glycan array binding signal (z-score),[12],0.673
same,glycan array binding signal (z-score),[13],-0.424
same,glycan array binding signal (z-score),[14],-0.424
same,glycan array binding signal (z-score),[15],2.26
same,glycan array binding signal (z-score),[16],0.975
same,glycan array binding signal (z-score),[17],-0.424
same,glycan array binding signal (z-score),[18],3.5
same,glycan array binding signal (z-score),[19],1
same,glycan array binding signal (z-score),[20],0.087
same,glycan array binding signal (z-score),[21],0.54
same,glycan array binding signal (z-score),[22],-0.424
same,glycan array binding signal (z-score),[23],-0.424
same,glycan array binding signal (z-score),[24],0.142
same,glycan array binding signal (z-score),[25],-0.424
same,glycan array binding signal (z-score),[26],-0.424
same,glycan array binding signal (z-score),[27],-0.424
same,glycan array binding signal (z-score),[28],-0.424
same,glycan array binding signal (z-score),[29],-0.424
same,glycan array binding signal (z-score),[30],-0.424
same,glycan array binding signal (z-score),[31],-0.424
same,glycan array binding signal (z-score),[32],-0.424
same,glycan array binding signal (z-score),[33],-0.424
same,glycan array binding signal (z-score),[34],-0.424
same,glycan array binding signal (z-score),[35],1.74
same,glycan array binding signal (z-score),[36],-0.424
same,glycan array binding signal (z-score),[37],1.76
same,glycan array binding signal (z-score),[38],1.74
same,glycan array binding signal (z-score),[39],0.302
same,glycan array binding signal (z-score),[40],0.056
same,glycan array binding signal (z-score),[41],-0.393
same,glycan array binding signal (z-score),[42],0.136
same,glycan array binding signal (z-score),[43],0.041
same,glycan array binding signal (z-score),[44],0.809
same,glycan array binding signal (z-score),[45],0.453
